# Measurements reported in PMC6212790.
# The list shows a part of the results. At the low end of the ranking the order means little.
# Biological target: T1, GST-Rok-C97-191 (UniProt O34857)
# T1 sequence: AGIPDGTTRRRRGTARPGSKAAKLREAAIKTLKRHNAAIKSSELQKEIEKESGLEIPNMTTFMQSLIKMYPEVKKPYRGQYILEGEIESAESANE
# Assay: protein binding microarray;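 also: rank score from −0.5 (least bound) to 0.5 (best bound)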
# Details: Rok is a gene silencer of Bacillus subtilis; high values mean tight binding; most listed sequences are background and not binding sites; double strand, one strand shown
row,Sequence,binding signal [E-score]
1,AAAGTTAG,0.156
2,CCACCGCA,-0.145
3,CCACTGGA,-0.202
4,ATGACACG,-0.103
5,TCCCTGAA,-0.252
6,AGCTTTTC,0.0739
7,TAGAACGA,0.058
8,GTTGTTGA,0.0546
9,CGTTTACC,-0.0458
10,GACAACAA,-0.114
11,CCACAAAC,0.0675
12,GCATACCA,0.132
13,ATCCAAAG,-0.0572
14,CTTCGCGA,-0.246
15,ACCAAGGG,-0.244
16,GCACCGAA,-0.2
17,ATGGACAC,0.0474
18,GATATTCC,0.151
19,GCTTGCCA,-0.131
20,GCAGGTCA,-0.13
21,GTCGTCGA,0.00321
22,TACTACTA,0.44
23,CCGCGCGA,-0.225
24,GTTTGGCA,0.0167
25,CCTGAAGC,-0.0171

row,Sequence,binding signal [E-score]
1,AAAGAGCT,-0.184
2,CTAAACTC,0.0554
3,CACCCAGA,-0.284
4,CAAACACA,0.0475
5,AATATAAA,0.361
6,TAAGCTCA,-0.0452
7,GATAAGAA,0.0314
8,AGTGTCGC,-0.105
9,CGTCTAAC,-0.154
10,AATGGACA,-0.114
11,ACGCTTCA,-0.287
12,ACATCCAC,0.126
13,GCATTGGA,-0.0963
14,AGAATTGG,0.176
15,CGAGATAC,0.1
16,CGGCTCGC,-0.204
17,GCGCCGAC,-0.109
18,CGTCACCA,-0.215
19,AGGCGGGC,-0.244
20,AACTAGTA,0.47
21,CAAACCCA,0.0142
22,ACCCTACT,0.127
23,ACACTTCC,0.0399
24,CACAGTCC,-0.2
25,CGGGTTTA,-0.0403

row,Sequence,binding signal [E-score]
1,AAAGCGAG,-0.169
2,GCGGTACA,0.119
3,AATCGAAC,0.139
4,CATTGGAA,-0.0107
5,ATCGCCTG,-0.133
6,GCGTTCTA,0.179
7,TGGACCAA,-0.381
8,CACATTCC,-0.139
9,TCCCAACA,-0.00841
10,AGCCGGCG,-0.258
11,AGACAAGA,-0.0966
12,GCAGAAAA,0.0646
13,AAAACGTG,-0.0318
14,CCTCGGTC,-0.348
15,CACCGCGA,0.00941
16,TAGAAAGA,0.154
17,CCACGGCC,-0.233
18,CTCTAGAG,0.0157
19,ACTCCTCA,-0.236
20,GGATGACA,-0.12
21,ACAATGAG,0.0315
22,GCTCTTGA,-0.133
23,TCAGGAGA,-0.166
24,ATACCCCA,-0.0857
25,GACCGCGA,-0.229

row,Sequence,binding signal [E-score]
1,CCTATTAC,0.247
2,GATGTGAA,0.0761
3,CACTTCTG,0.108
4,CCATTGTC,-0.00621
5,CTCTTCCC,-0.187
6,ATGTTGCA,-0.0083
7,ACTGCATC,-0.00161
8,CTGATTGC,-0.0195
9,AGCTAAAC,0.154
10,ACATCGAA,0.0242
11,CTCCATGA,-0.177
12,GGAGTTTA,0.0723
13,ACGGTTTC,-0.183
14,ACTTTCTC,0.0481
15,CACCGGCA,-0.173
16,ACTGATTG,0.0946
17,TAGACCAA,-0.304
18,CAGAGTAC,-0.0856
19,TTTCGAAA,-0.0872
20,CGGCTACC,-0.19
21,CAGCTTAC,-0.168
22,GCTACGAC,0.041
23,CTGAATGC,-0.197
24,CCAAGGTC,-0.214
25,CCATGGGG,-0.385

row,Sequence,binding signal [E-score]
1,CGCCACCC,-0.0952
2,CCCGTTTC,0.128
3,CCGAAGGC,-0.155
4,GACGGGTA,-0.0442
5,CGCGTCCA,-0.247
6,GACAGCAA,-0.158
7,ATACTACG,0.273
8,GGACGGAA,-0.113
9,CCGGAAGA,-0.255
10,AATGCCGG,-0.0678
11,AAGACCCT,-0.29
12,AACAGTCC,-0.298
13,AGAAGGTA,0.116
14,ACCCATTA,0.151
15,AAGAACCT,0.0778
16,AGATATTC,0.231
17,GAATAGAA,0.209
18,CGTTTCGA,-0.111
19,CTCTAGGA,-0.0777
20,AGACGAAA,0.153
21,ATTGCAAC,0.114
22,AAAGGGGG,-0.158
23,CTTGGTGC,-0.0814
24,AACTCCCT,0.0599
25,GGTTCAGA,-0.0943

row,Sequence,binding signal [E-score]
1,GCGACACC,-0.241
2,AGGATTGA,0.0744
3,AACATTAT,0.12
4,ACGGTTAC,0.0305
5,CTCCAGTC,-0.194
6,GTGAGATA,0.0844
7,CCGTGCAA,-0.0545
8,CTTATCCA,0.051
9,GAATCAAC,-0.168
10,GCGCACAA,0.101
11,AGAAGAAG,-0.0525
12,ATTCTATC,0.414
13,AGTAGACA,0.0265
14,AGCAATCG,0.111
15,GAACCGTA,0.039
16,CCCGTTGA,-0.0711
17,CCTACTGA,0.0236
18,ATATATAG,0.379
19,GTTTCCTA,0.107
20,CCTGGACG,-0.285
21,AATGGTCA,0.122
22,AATGTGGC,-0.231
23,ACGCCTAT,-0.000862
24,CGGTCCCA,-0.0915
25,CACAAAGA,-0.0718

row,Sequence,binding signal [E-score]
1,AAGGTTAC,-0.0134
2,CTGGTTGC,-0.26
3,CATTAGAG,0.105
4,ACGGGCGA,0.0647
5,ACCAGTTG,0.0756
6,AGGCCCGA,-0.232
7,AAAGCCAC,-0.148
8,CACCCGGG,-0.272
9,CCCACGTA,-0.037
10,GCGCAACC,-0.0602
11,CCGACTAC,-0.213
12,AGTACTCG,0.0953
13,AACTTTCT,0.166
14,GGCAGACC,-0.296
15,AGACTTTC,-0.0852
16,CGTCTCGC,-0.192
17,TCGATGCA,0.0428
18,CGAATTGA,-0.0573
19,ATGCCGGG,-0.0342
20,CTCACCAA,0.00848
21,ACTGTCTC,-0.108
22,TACGTCGA,0.125
23,CACATCAA,0.0141
24,AGCTAAGG,-0.143
25,GTTCTCAA,0.064

row,Sequence,binding signal [E-score]
1,ACGTGGGA,-0.0432
2,GAATCCGA,-0.0545
3,AACAGATC,-0.115
4,ATGTTATA,0.281
5,ATAATGGG,0.106
6,AGGTCACT,-0.0299
7,TACCACTA,0.263
8,ATAGAAAT,0.381
9,CGAGTCTC,-0.219
10,ACCACGGA,-0.033
11,ACCGCTAA,0.13
12,GAGCATAA,0.129
13,GTTACTCA,0.0639
14,GGATATCC,-0.17
15,CTAACTCC,-0.00723
16,AGAACAAA,-0.0217
17,CAGGTGTA,0.0479
18,AAGTTGTA,0.199
19,AGAACTGG,-0.0864
20,CGGATCAG,-0.032
21,CGATGTAG,0.176
22,ACCCATGG,-0.065
23,CCCACGCG,0.0254
24,GCATCATA,0.171
25,ACGAACGT,-0.196

row,Sequence,binding signal [E-score]
1,GCGATGAA,-0.0177
2,ATCCATAC,0.00279
3,ATGAAGCG,-0.113
4,CATTTTAG,0.164
5,GTCTGGCA,-0.154
6,ATTGGTCC,-0.221
7,TCGAAAAA,-0.0734
8,ATCCCAAG,-0.118
9,CAGTAGCA,0.163
10,AATACACC,0.105
11,AATGGCCG,-0.1
12,ATATTGGA,0.116
13,GAATACCA,0.0312
14,AGGGTTAG,-0.232
15,AAGAGACT,0.0451
16,ATCATTGC,0.096
17,AACTGTTC,-0.0552
18,TACTCGAA,0.156
19,TCGGACCA,-0.135
20,GGAAGATA,0.182
21,ACTACCTA,0.308
22,AGAGTCCA,-0.0763
23,AACTGCCA,-0.275
24,TATAGGGA,0.0451
25,ATCTACTC,0.206

row,Sequence,binding signal [E-score]
1,ACTAGCAC,0.0173
2,CGCTGACA,-0.0139
3,ATTCACAA,0.135
4,ATCCAGAA,0.0754
5,ATAACTGC,0.128
6,AAAAAGAT,0.131
7,AATGCCTG,0.0203
8,CACTGAGG,-0.173
9,TACGCCCA,-0.0847
10,ATGGTAGC,0.35
11,CGCTGCAC,-0.24
12,AGGCGGAC,-0.278
13,AAACTTAC,0.274
14,CTGAGAGC,-0.268
15,ACGCCTAA,-0.184
16,TAAAGGCA,-0.0495
17,TAAGTGCA,0.0583
18,ACATGTCT,-0.129
19,ATACTCCG,0.124
20,CAACGTGA,-0.0575
21,CCGGAGTC,-0.211
22,ATGACAGC,-0.0772
23,ACTAAGTG,0.05
24,CGGTGACC,-0.242
25,ACGGTTCA,-0.0205

row,Sequence,binding signal [E-score]
1,CCTCGAGC,-0.0582
2,ACGCCTTA,0.073
3,CCCGGCCG,-0.206
4,ATGTGCCG,0.0314
5,GGCGAAAC,-0.154
6,GGGCTACC,-0.272
7,ACCTGCGC,-0.103
8,CTGTCTTC,-0.115
9,AGTCCAAC,-0.123
10,TACACGTA,0.0591
11,ATACTGCA,0.287
12,GCCATATA,0.0533
13,ATACACAG,0.211
14,AGAGGAGG,-0.227
15,AAAATCAG,0.0662
16,GGTACCCA,-0.204
17,AAAGAATA,0.135
18,TACCCTGA,-0.162
19,AATACAAT,0.259
20,CGGTCGTA,0.261
21,CGACTCAA,-0.0209
22,ATGCTTTG,-0.0485
23,GGCATACC,0.00482
24,CATGACTC,0.0199
25,GGATTAAC,-0.0794

row,Sequence,binding signal [E-score]
1,ATTCGGAG,0.177
2,CAATATGC,0.0338
3,CATCGCGC,-0.104
4,ATCCGCAC,-0.158
5,AAATTAAG,0.244
6,GTGGCGAA,-0.104
7,TACTGCGA,-0.0669
8,TTATGCAA,0.0744
9,CGCGGTAC,-0.0926
10,TGAGAAAA,0.154
11,AAGAAAGC,0.0446
12,GATATCAC,0.102
13,CCTTCGTC,-0.258
14,CGAGATCG,0.00764
15,ACGGGGAC,-0.292
16,AGCTGCAC,-0.0784
17,GCTATAAC,0.0846
18,GAGGTAAC,0.0147
19,CGACAGAA,-0.0126
20,TCCGGAAA,-0.188
21,AACCCCTA,-0.0905
22,CTACAGAC,0.11
23,TGAGTAAA,0.0735
24,CTCTTCTC,-0.191
25,ATTTCATG,0.0719

row,Sequence,binding signal [E-score]
1,CTTTGGGC,-0.314
2,GCATCGAA,0.0226
3,GATTACTA,0.354
4,ACAGGGCC,-0.268
5,AAGATGAA,-0.000246
6,AGAGAGAG,-0.164
7,CCGTCCAC,-0.0522
8,ATGACCAG,-0.103
9,GTATTCCA,0.0684
10,CGAATATA,0.245
11,CCCGATAA,0.12
12,GATGAGGA,-0.207
13,ATAGGCTC,-0.202
14,AACCTCAA,-0.0809
15,ACAGAGTC,-0.142
16,ACCGGACA,-0.0656
17,GAAGCCCC,-0.224
18,GCTGCAGC,-0.158
19,ACCTGGGG,-0.392
20,CTTGTTAC,0.0583
21,ACCCTTTA,0.000281
22,CCCGGACA,-0.0586
23,AAGGTGTC,-0.264
24,CCGGGGGA,-0.0847
25,ATGATGGG,-0.0998

row,Sequence,binding signal [E-score]
1,AGAACAGC,0.0208
2,AATAGGGG,-0.179
3,ATCCGCTC,-0.164
4,CACTCTCG,-0.0178
5,AGGGAGGG,-0.231
6,ATATGCTC,-0.0124
7,CGATCAAA,0.085
8,AAGCTCGC,-0.201
9,GCAAACAC,-0.0826
10,CAAATACG,0.127
11,ACAACCGG,-0.0576
12,ACTCGATC,0.1
13,AGAACATA,0.13
14,GCGAAGCA,-0.238
15,CACGTAGG,-0.15
16,AACCGAGG,-0.246
17,AACCAAAT,0.153
18,AATGTAGA,0.359
19,ATCGCAAT,0.132
